According to paper PMC6212790:
This is one part of the list. At the low end of the ranking, values are background and their order means little.

What follows are sequences tested against T1, GST-Rok (full length) (UniProt O34857) (assay: protein binding microarray). Settings: Rok is a gene silencer of Bacillus subtilis; high values mean tight binding; most listed sequences are background and not binding sites; double strand, one strand shown.
T1 sequence: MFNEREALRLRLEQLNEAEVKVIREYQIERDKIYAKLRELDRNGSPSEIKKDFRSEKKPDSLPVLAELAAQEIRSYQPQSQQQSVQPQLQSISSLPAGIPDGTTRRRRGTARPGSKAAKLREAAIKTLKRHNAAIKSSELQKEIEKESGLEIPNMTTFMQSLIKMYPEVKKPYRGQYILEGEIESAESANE
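Further: rank score from −0.5 (least bound) to 0.5 (best bound).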

Sequence	binding signal
CAGTAAAG	0.00124 E-score
AAGAGCTC	-0.165 E-score
TCAAGAGA	-0.0469 E-score
AAATGTGG	0.0722 E-score
GACTTGGC	-0.138 E-score
AGAAGGGG	-0.307 E-score
ACGCACCT	-0.16 E-score
CAATACAC	0.125 E-score
AGTTATAA	0.285 E-score
CAGCTCGA	-0.226 E-score
AGCACCCG	-0.341 E-score
CGCGAACA	-0.0529 E-score
CCCCGAGG	-0.291 E-score
CTACTACC	0.303 E-score
AGTCGGTC	-0.215 E-score
CCGGATAA	0.0373 E-score
CTAAATGC	0.0847 E-score
CATTACAG	0.129 E-score
CATGGAGA	0.0828 E-score
GCCTGTAA	0.0127 E-score
GCTACAAC	0.219 E-score
CGAGACTA	0.0881 E-score
AGTTTAGA	0.253 E-score
CGCCGTCC	-0.383 E-score
CTGAAACC	-0.0984 E-score

Sequence	binding signal
ACCGCTGC	-0.162 E-score
ACGCCGGA	-0.221 E-score
ATAGCTTA	0.132 E-score
ACCGGCAC	0.013 E-score
AACGTATT	0.212 E-score
GCACCCGC	-0.241 E-score
CCACATGG	-0.11 E-score
ATCGAGGA	-0.178 E-score
CGCCAAAG	-0.269 E-score
GGCAACAC	-0.309 E-score
TAGTAAAA	0.332 E-score
AAATTTAC	0.336 E-score
AGGATCTA	0.29 E-score
ATGGACCG	-0.102 E-score
GTTACACA	0.0782 E-score
AAAGCTTA	0.176 E-score
CGTTTCAG	-0.16 E-score
AAAAGTTA	0.191 E-score
ATACTTAA	0.0668 E-score
ATCCGAGG	0.0827 E-score
AGGAATCG	0.0148 E-score
GATGAGCC	-0.344 E-score
TCACGAGA	-0.235 E-score
ACCGCATA	0.0945 E-score
GAGATTGA	0.0297 E-score

Sequence	binding signal
ACGGGCGC	-0.173 E-score
AAAACATA	0.315 E-score
ACCACAGA	0.0227 E-score
CATCCTCC	-0.36 E-score
GCGCCAGA	-0.314 E-score
ATTTGACC	-0.0614 E-score
CCCTATAA	0.23 E-score
ACGGTGAC	0.0687 E-score
CCGTATCG	-0.12 E-score
CCATGAGA	-0.0139 E-score
GAAAGGAA	-0.276 E-score
GCGAAACC	-0.191 E-score
CATCCATC	-0.0649 E-score
ATCTTTGC	0.0658 E-score
AGGAATAC	-0.0369 E-score
ACGAATAC	0.203 E-score
CGACTTAG	-0.115 E-score
AAGGCAGC	-0.0862 E-score
TGTACACA	0.0194 E-score
GCAATGAC	-0.0169 E-score
ATGATGCC	-0.00544 E-score
AGCCACAT	-0.231 E-score
TCTAATAA	0.173 E-score
AAAGAACC	-0.0732 E-score
GACGGCGA	-0.287 E-score

Sequence	binding signal
CCACTACC	-0.0072 E-score
ATGGCAGA	-0.182 E-score
GGACCTAA	-0.115 E-score
GATAAATA	0.313 E-score
AAACCGGT	0.0305 E-score
GTATAGGA	0.1 E-score
ATACAGTG	0.172 E-score
AAATTCCG	0.0155 E-score
ATCGAGCC	0.122 E-score
ACTGGATG	-0.061 E-score
CCGGAGCA	-0.224 E-score
GCCTAACC	-0.173 E-score
GGCATTGA	0.0564 E-score
CTTCACGA	-0.3 E-score
CAGATGGC	-0.256 E-score
GCTCACGA	-0.136 E-score
GCTTGAGA	-0.121 E-score
CTCACGAG	-0.0944 E-score
CATCGCCA	-0.241 E-score
CATGGTAC	0.13 E-score
AAACATTC	0.0507 E-score
ATCGTAGA	0.263 E-score
GACTAAAC	-0.0564 E-score
ACGGTAAT	0.292 E-score
TGGGGAAA	0.0076 E-score

Sequence	binding signal
ATCAAAAA	0.108 E-score
CCAGCATA	-0.0442 E-score
AAGACGTC	-0.0262 E-score
CCTGCTAC	-0.0435 E-score
AAACTAGC	0.362 E-score
GAACTCCC	-0.3 E-score
CGTCCTAC	0.0907 E-score
CCGCGTAA	0.106 E-score
GCCAATAC	-0.059 E-score
AGTGAGAG	-0.0325 E-score
CGTGGTTC	-0.124 E-score
ACAGCGAG	-0.386 E-score
GGTATCGA	0.0156 E-score
ATCAAGGG	-0.165 E-score
ACGGAGGG	-0.298 E-score
CGAACGCA	0.0571 E-score
CGGAATGA	0.0208 E-score
TCCGCACA	-0.037 E-score
GGTTCCGA	-0.0743 E-score
GCACTTTA	-0.158 E-score
CGTGTTGA	-0.125 E-score
CGATGCGC	0.03 E-score
ATGTGGTG	0.225 E-score
ATAAAGGG	0.0558 E-score
ATTCCCTG	-0.0721 E-score

Sequence	binding signal
CTGTGATC	0.0619 E-score
CAGGCCTG	-0.351 E-score
GCCCCCTA	-0.329 E-score
CCTTCGCA	-0.0797 E-score
GGTCGAGA	-0.025 E-score
GCGCAGTA	0.0328 E-score
CAGATTTC	-0.079 E-score
ATCACCGC	-0.162 E-score
ACTTAGCG	0.178 E-score
AATAGACA	0.0377 E-score
TATTTACA	0.224 E-score
ACTTTCAT	0.187 E-score
AGTGCAAA	0.139 E-score
AATCAAAG	-0.0118 E-score
CTCAGGTA	0.00854 E-score
AAAGCTAT	0.114 E-score
CCATTGCA	0.0693 E-score
AACATCTG	-0.0115 E-score
AAAATGAG	0.198 E-score
GCAGTGGC	-0.258 E-score
CCTCACGC	-0.124 E-score
ATTCTTGG	-0.0431 E-score
CCCACCAA	-0.143 E-score
AGTGGGCC	-0.331 E-score
CTACTTGC	0.073 E-score

Sequence	binding signal
CAATATAA	0.213 E-score
CGACCGCC	-0.333 E-score
CAACATAC	0.246 E-score
AATTAATG	0.198 E-score
TATTGTCA	0.24 E-score
TAGCCCGA	-0.0153 E-score
GATCCTCA	-0.166 E-score
TTAATAAA	0.235 E-score
ACCGTGGG	-0.252 E-score
AACCTGCT	-0.14 E-score
CTCACTCC	-0.163 E-score
CAATGATC	0.0311 E-score
AAAATTTG	0.177 E-score
CCAGACCC	-0.342 E-score
CGTGAGGA	-0.116 E-score
CCGCATCC	-0.201 E-score
GTGACCTA	0.0118 E-score
CCATAAAG	-0.218 E-score
ATTTAGAA	0.152 E-score
CCACGGCG	-0.281 E-score
GATGTAGC	0.0838 E-score
GTGTATAA	0.246 E-score
